± gives the uncertainty stated by the source. The sequences are guide strands of siRNAs; only the seed at positions 2 to 7 varies.
What was measured:
[1] = tested on: 3LL; assay: cell viability relative to siNT1 control; higher = less toxic; details: concentration: 10 nM; 96 h; Mus musculus;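 also: Luminescence-based viability of cells reverse transfected in 384-well plates with lipid-complexed siRNAs built on a non-toxic 19mer backbone whose passenger strand carries 2′-O-methyl groups at positions 1 and 2, triplicates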
[2] = tested on: H460; assay: cell viability relative to lipid-only control; HeyA8 human ovarian and H460 human lung cancer; M565 mouse liver and 3LL mouse lung cancer; siNT1 is a non-toxic control siRNA; higher = less toxic; details: concentration: 10 nM; 96 h; Homo sapiens
Experimental: (§1)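 Arrayed screen of 4096 siRNA duplexes, each carrying one of all possible 6mer seeds at guide-strand positions 2-7 in a fixed neutral 19mer scaffold (constant flanks: U at position 1, then ACAUGUAAACCA, plus a 3' AA overhang). The passenger strand is 2'-O-methylated at positions 1-2 so only the guide strand loads into RISC. Duplexes were reverse-transfected at 10 nM with RNAiMAX in triplicate in 384-well plates; viability was read by CellTiter-Glo ATP content 96 h after transfection. Values are % viability normalised to lipid-only wells (HeyA8, H460, M565) or to siNT1 (3LL).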

[3] = tested on: HeyA8; assay: as above; details: concentration: 10 nM; 96 h; Homo sapiens
Experimental: as §1

[4] = tested on: M565; assay: as above; details: concentration: 10 nM; 96 h; Mus musculus
Experimental: as §1
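For cell viability relative to lipid-only control in this document: reverse lipid transfection in 384-well plates, in triplicate, of duplexes on a non-toxic 19mer backbone with passenger strand 2′-O-methylated at positions 1 and 2, luminescence viability read-out.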

Sequence	cell viability [1]	cell viability [2]	cell viability [3]	cell viability [4]
UCGGUAGACAUGUAAACCAAA	90 ± 16%	76.1 ± 11%	87.2 ± 3.4%	76.1 ± 11%
UCGGUAUACAUGUAAACCAAA	91.5 ± 22%	73.5 ± 8.1%	77.5 ± 2.9%	72.4 ± 14%
UCGGUCAACAUGUAAACCAAA	92.7 ± 6.9%	68.1 ± 9.4%	69.9 ± 6.2%	48 ± 5.2%
UCGGUCCACAUGUAAACCAAA	15.9 ± 4.4%	14 ± 4.6%	11.8 ± 0.23%	8.37 ± 1.2%
UCGGUCGACAUGUAAACCAAA	88.6 ± 8.9%	43.3 ± 3.5%	54 ± 4.7%	57 ± 8.8%
UCGGUCUACAUGUAAACCAAA	75.8 ± 20%	35.7 ± 3.2%	30.7 ± 2.8%	36.1 ± 8.4%
UCGGUGAACAUGUAAACCAAA	92.4 ± 12%	58.3 ± 3%	81.6 ± 4.4%	56.3 ± 8%
UCGGUGCACAUGUAAACCAAA	25.2 ± 3.4%	19 ± 1.8%	15.6 ± 1.2%	18.7 ± 0.8%
UCGGUGGACAUGUAAACCAAA	47.8 ± 4.8%	15.9 ± 3.4%	7.23 ± 0.93%	24 ± 4.1%
UCGGUGUACAUGUAAACCAAA	59 ± 13%	47.3 ± 6.1%	43.3 ± 2.2%	14 ± 2.5%
UCGGUUAACAUGUAAACCAAA	93.7 ± 22%	66 ± 3.4%	92.2 ± 5.7%	73.1 ± 4.6%
UCGGUUCACAUGUAAACCAAA	40 ± 8.3%	44.5 ± 2.7%	30.7 ± 2.2%	25.3 ± 5%
UCGGUUGACAUGUAAACCAAA	95.2 ± 12%	62.4 ± 4.6%	72.9 ± 6.8%	72.5 ± 8.8%
UCGGUUUACAUGUAAACCAAA	94.9 ± 13%	63.1 ± 3.8%	83.8 ± 1.4%	76 ± 4.1%
UCGUAAAACAUGUAAACCAAA	102 ± 20%	93.2 ± 22%	89 ± 8.6%	81.3 ± 5.6%
UCGUAACACAUGUAAACCAAA	90.5 ± 13%	88.2 ± 6.7%	85.8 ± 7.8%	64.5 ± 6.8%
UCGUAAGACAUGUAAACCAAA	89.1 ± 8.8%	91.1 ± 9.4%	82.8 ± 1.6%	74.8 ± 4.7%
UCGUAAUACAUGUAAACCAAA	90.7 ± 16%	79.9 ± 14%	80.7 ± 3.3%	82.6 ± 6.5%
UCGUACAACAUGUAAACCAAA	89.3 ± 14%	75.9 ± 14%	81.5 ± 4.8%	92 ± 12%
UCGUACCACAUGUAAACCAAA	57.5 ± 6.3%	22.9 ± 1.2%	61.3 ± 1.8%	30.5 ± 0.81%
UCGUACGACAUGUAAACCAAA	86.3 ± 18%	95.7 ± 13%	79 ± 5.2%	94.1 ± 13%
UCGUACUACAUGUAAACCAAA	76.8 ± 23%	60.6 ± 9.4%	41.3 ± 3.8%	81.7 ± 11%
UCGUAGAACAUGUAAACCAAA	87.2 ± 15%	69.1 ± 11%	74.3 ± 3.6%	71.3 ± 7.4%
UCGUAGCACAUGUAAACCAAA	51.8 ± 9.9%	12.5 ± 1%	8.46 ± 1%	28.7 ± 7.1%
UCGUAGGACAUGUAAACCAAA	86.9 ± 5.5%	62.1 ± 8.1%	37.7 ± 6.3%	57.1 ± 6.7%
UCGUAGUACAUGUAAACCAAA	85.6 ± 5.9%	48.2 ± 1.2%	31.1 ± 2.5%	71.8 ± 5%
UCGUAUAACAUGUAAACCAAA	90.9 ± 12%	75.1 ± 19%	90.9 ± 4.3%	67.7 ± 3.5%
UCGUAUCACAUGUAAACCAAA	88 ± 14%	66.6 ± 0.84%	49.7 ± 1.5%	76.9 ± 1.3%

From the supplement of paper PMC6206098
